According to patent US20250171556A1 (VIRTUOSO BINCO, published 2025):

Biological target: T1, recombinant human EGFR (human, UniProt P00533 part only)
T1 construct: Recombinant protein for ELISA coating; also called human EGFR recombinant protein
Experiment: ELISA, plate coated with recombinant human EGFR, detection with peroxidase anti-human IgG (Fab specific), OD450
Protocol: A 96-well plate was coated overnight at 4° C. with 1 μg/mL recombinant human CD47 or human EGFR. After washing 3 times, the plate was blocked with 300 μL 1% BSA in PBST at 37° C. for 1 hour. Serially diluted antibodies were added and incubated at 37° C. for 1 hour. The plate was then washed 4 times with PBST and incubated with 1:5000 diluted peroxidase labeled goat anti-human IgG (Fab specific) secondary antibody (Sigma, Cat #A0293) for 1 hour at 37° C. The plate was washed again 4 times with PBST, incubated with 3,3′,5,5′-tetramethylbenzidine (TMB) substrate for 15 min at room temperature, terminated with 1N HCl, and then read at 450 nm.

B1: Panitumumab×VIR47.V8 (bispecific antibody, human IgG1, kappa)
heavy: QVQLQESGPGLVKPSETLSLTCTVSGGSVSSGDYYWTWIRQSPGKGLEWIGHIYYSGNTNYNPSLKSRLTISIDTSKTQFSLKLSSVTAADTAIYYCVRDRVTGAFDIWGQGTMVTVSS[letters of human IgG1 constant region with changes left out]
light: DIQMTQSPSSLSASVGDRVTITCQASQDISNYLNWYQQKPGKAPKLLIYDASNLETGVPSRFSGSGSGTDFTFTISSLQPEDIATYFCQHFDHLPLAFGGGTKVEIKRTVAAPSVFIFPPSDEQLKSGTASVVCLLNNFYPREAKVQWKVDNALQSGNSQESVTEQDSKDSTYSLSSTLTLSKADYEKHKVYACEVTHQGLSSPVTKSFNRGEC
scFv: EVQLLESGGGLVQPGGSLRLSCAASGFTFSNFAMSWVRQAPGKGLEWVSTISASGGRTFYADSVKGRFTISRDNSKNTLYLQMNSLRAEDTAVYYCAKEGSFGEGVDPWGQGTLVTVSSGGGGSGGGGSGGGGSSYELTQPPSVSVSPGQTARITCSGDALPKKYAYWYQQKSGQAPVLVIYEDNKRPSGIPERFSGSSSGTMATLTISGAQVEDEADYYCYSTDISGNHWVFGGGTKLTVLGGSGGSGGA[letters of human IgG1 Fc with changes left out]
notes: the tie rests on the name; also called Panitumumab xVIR47.V8; Panitumumab × VIR47.V8_v2
EC50 (read off the curve): ~0.07 nM
